The results in this text go back to PMC3843955 (Antiviral research, 2013).

Molecules are shown by their SMILES. Where two headings read alike, the source gives them in different places.

Assay [1] has as its system HCMV (virus RC2626, luciferase variant of strain Towne). Put plainly: microbe, parasite or virus in culture. The conditions noted are these: Human betaherpesvirus 5, MRC5, 120 h, read-out: Yield inhibition MRC-5 EC50.
Assay [2] shares this test system. The conditions noted are these: read-out: Yield inhibition MRC-5 EC50, Luciferase-based HCMV yield inhibition assay 5 d after infection, MOI 0.03, ± standard deviation.

Broadly, the EC50 is the midpoint of the concentration-response curve. As for `Nc1nc2c(ncn2COCCO)c(=O)[nH]1` [ACV, Acyclovir], the EC50 in assay [1] is 24 ± 3.1 µM.
With `N/C(=N\O)c1cc(O)c(O)c(O)c1` [TX, trimidox], the EC50 in assay [2] turned out to be 36 ± 1.7 µM.
In the case of `NC(=O)NO` [HU, hydroxyurea], in assay [2], the EC50 was determined as 221 ± 52 µM.
Regarding `Nc1nc(O)c2ncn(COC(CO)CO)c2n1` [GCV, Ganciclovir], the EC50 in assay [1] amounted to 0.6 ± 0.06 µM.
Consider `O=C(NO)c1ccc(O)c(O)c1` [DX, didox], for which, in assay [2], the EC50 turned out to be 103 ± 19 µM.
